# Where “and” joins values, the source holds several entries; their conditions need not be identical. Equal entries are not always repeated. Among all 110,000 compounds or so, about 230 (0.21%) showed an effect of 50% or more. The list shows a part of the results.
# Molecular target: DPAP1 (Plasmodium falciparum, UniProt Q8IIJ9)
# Assay: primary screen, percent inhibition; read by cleavage of a fluorogenic dipeptide substrate; higher = more effect of the substance
# Design: species or system P. falciparum D10 trophozoite lysates; single well
# 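Note: 30 min substrate incubation versus DMSO and 10 µM JCP410 controls.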
# Sequence of DPAP1 (Q8IIJ9 whole entry, looked up): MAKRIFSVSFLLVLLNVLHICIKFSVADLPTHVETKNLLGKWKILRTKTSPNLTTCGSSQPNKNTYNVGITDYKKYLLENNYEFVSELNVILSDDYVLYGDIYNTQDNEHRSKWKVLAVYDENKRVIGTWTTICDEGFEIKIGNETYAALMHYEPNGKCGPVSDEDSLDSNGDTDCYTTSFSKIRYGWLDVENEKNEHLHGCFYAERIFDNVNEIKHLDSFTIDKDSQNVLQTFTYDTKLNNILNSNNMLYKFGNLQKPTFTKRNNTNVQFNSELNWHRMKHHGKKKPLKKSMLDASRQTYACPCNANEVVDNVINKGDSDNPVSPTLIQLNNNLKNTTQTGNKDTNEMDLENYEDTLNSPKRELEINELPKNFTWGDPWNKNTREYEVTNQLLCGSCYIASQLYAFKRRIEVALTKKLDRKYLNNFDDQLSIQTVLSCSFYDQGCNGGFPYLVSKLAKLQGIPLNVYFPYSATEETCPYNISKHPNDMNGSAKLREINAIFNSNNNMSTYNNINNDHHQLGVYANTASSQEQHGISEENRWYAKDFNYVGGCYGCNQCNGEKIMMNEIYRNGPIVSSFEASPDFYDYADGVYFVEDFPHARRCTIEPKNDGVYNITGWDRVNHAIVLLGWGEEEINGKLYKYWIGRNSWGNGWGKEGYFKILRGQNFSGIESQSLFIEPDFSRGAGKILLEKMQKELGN
row,Compound,% Inhibition @ 10 uM
1,O=C(NC1CCS(=O)(=O)C1)c1cccc(S(=O)(=O)N2CCOCC2)c1 (stereo not drawn),5.37%
2,COc1ccc(S(=O)(=O)Nc2ncccn2)cc1,0.736%
3,COc1cccc(-c2nc(SCC(=O)Nc3ccc(Cl)cc3)nc(O)c2C#N)c1,2.46%
4,CC(CNC(=O)C1CCN(c2nc3ccccc3n3cccc23)CC1)c1ccccc1 (stereo not drawn),0.658%
5,CCOC(=O)C1CCCN(Cc2ccccc2Cl)C1 (stereo not drawn),-3.56%
6,Cc1cc(-c2ccc(C)c(S(=O)(=O)N(Cc3ccco3)C3CCCC3)c2)on1,-3.61%
7,CN(Cc1ccccc1)S(=O)(=O)c1nnc(NC(=O)C23C[C@H]4C[C@@H](C2)C[C@@H](C3)C4)s1,-3.42%
8,Cc1ccc(C(=O)N/C(=C/c2cccnc2)C(=O)Nc2ccc(Cl)cc2)cc1,2.92%
9,O=C(CSc1nc2ccsc2c(=O)n1Cc1ccc(C(=O)O)cc1)NCc1ccco1,6.35%
10,CCC1CCC(C(=O)NC(C(=O)NCc2cccnc2)C(C)C)CC1 (stereo not drawn),-4.06%
11,COc1ccc(C)cc1N(CC(=O)Nc1ccc(C)c(C)c1)S(C)(=O)=O,-3.28%
12,Cc1ccc(CC2CC(=O)N(CC(=O)O)C2=O)cc1 (stereo not drawn),-5.07%
13,Cc1cc(C)c2c(n1)sc1c3c(c(O)nc12)C(c1ccccc1)C(C#N)=C(N)O3 (stereo not drawn),-6.18%
14,CCOc1ccccc1C(=O)Nc1ccc(Br)cc1,-4.59%
15,O=C1C2CCCCC2C(=O)N1c1ccc(S(=O)(=O)Nc2ncccn2)cc1 (stereo not drawn),-4.76%
16,CC(=O)Nc1ccc(S(=O)(=O)Nc2ccc(C)c(Br)c2)cc1,-13.3%
17,COc1ccc(-c2c(C(F)(F)F)oc3c(CN(C)C)c(O)ccc3c2=O)cc1,-3.12%
18,O=C(c1ccc(Br)cc1)c1cc2ccc(O)cc2oc1=O,5.32%
19,CCOC(=O)c1cnn(CCOC(=O)c2ccco2)c1NC(=O)c1ccco1,-6.52%
20,CCOc1ccc(C2CC(=O)N3CN(Cc4cccnc4)CSC3=C2C#N)cc1 (stereo not drawn),56%
21,O=C1C(=Cc2cc([N+](=O)[O-])ccc2O)C(=O)c2ccccc21,2.6%
22,Cc1nnc(NC(=O)CSc2ccc(-c3cccs3)nn2)s1,4.84%
23,NC(=S)c1cc2cc([N+](=O)[O-])ccc2oc1=O,0.132%
24,O=C(Cc1c(Cl)cccc1Cl)N1CCN(c2ccccc2)CC1,1.39%
25,CCc1cc2c(cc3c(=O)n(CC(=O)NCCN4CCOCC4)ncn32)s1,1.68%

row,Compound,% Inhibition @ 10 uM
1,Oc1ccc(C2=NNc3nc4ccccc4nc3O2)cc1,-7.17%
2,Cn1c(=O)c2nc(-c3ccccc3)c(=O)n(C)c2n(C)c1=O,-7.32%
3,Cc1ncc(CO)c2c1Oc1nc(-c3cccc(Cl)c3)nc(SCC(=O)N3CCCCC3)c1C2,5.85%
4,COc1ccc(S(=O)(=O)N2CCC(C(=O)NC3CC3)CC2)cc1,4.74%
5,Cc1oc(-c2ccc(C(=O)NCCN3CCCC3)cc2)nc1CSc1ccc(Cl)cc1,0.0882%
6,O=C(O)C1C2C=CC3(CN(CCCN4CCOCC4)C(=O)C13)O2 (stereo not drawn),0.708%
7,COc1ccc(C(=O)NCCN2CCCC2)cc1,3.53%
8,COc1cccc([C@@H]2[C@H]3CCCC[C@]3(O)CCN2C(C)=O)c1,2.7%
9,CCCCOc1ccc(C2C(C(=O)OCCOC)=C(C)N=C3SCCC(=O)N32)cc1OC (stereo not drawn),-4.85%
10,CC1CC(=O)C2=C(C1)OC(N)=C(C#N)C2c1ccc(Br)o1 (stereo not drawn),-2.56%
11,Cn1ncc(Cl)c1C(=O)N1CCCc2ccccc21,2.01%
12,CCOC(=O)c1c(C)[nH]c(C)c1S(=O)(=O)NCC(=O)NCc1ccc(F)cc1,-5.31%
13,Cc1nn2c(O)c3c(nc2c1-c1cccc2ccccc12)CCCC3,2.65%
14,O=C(Cn1ccc2cc(S(=O)(=O)N3CCCCC3)ccc21)NCc1cccnc1,-4.27%
15,Cc1cccc(N2C(N)=C(C#N)C(c3cccnc3)C3=C2CCCC3=O)c1 (stereo not drawn),4.01%
16,CC(NC(=O)CN(c1ccccc1Cl)S(=O)(=O)c1ccccc1)c1ccccc1 (stereo not drawn),-4.62%
17,COc1ccc(C(=O)Nc2ccc(S(=O)(=O)Nc3nc(C)cc(C)n3)cc2)cc1Br,-5.92%
18,CCC1CCc2c(sc(NC(=O)c3ccoc3C)c2C(N)=O)C1 (stereo not drawn),6.81%
19,O=C(CCN1CCCCC1)c1ccc(Cl)cc1,2.13%
20,O=C(CCCC1CCCCC1)N[C@@H](CCc1ccccc1)C(=O)c1nc2ccccc2o1,-6.98%
21,CCN1CCN(Cc2ccc(Cl)c(Cl)c2)CC1,1.48%
22,Clc1cccc(Nc2nc3c(s2)CCCC3)c1,19.1%
23,CC1(C)N=C(c2ccccc2)C(=O)N1,3.5%
24,CC(C)(C)NS(=O)(=O)c1ccc(NC(=O)COc2ccc(Br)cc2)cc1,-6.08%
25,CC(C)c1ccc(-n2nnc(-c3nc(-c4ccncc4)no3)c2N)cc1,-1.87%

row,Compound,% Inhibition @ 10 uM
1,CCCOCC1O[C@@H]2OC(C)(C)O[C@@H]2[C@H]2OC(C)(C)O[C@@H]12 (stereo partly drawn),-2.97%
2,Cn1c(C(=O)NCc2ccccc2)cc(=O)n(C)c1=O,-0.403%
3,COCCCn1c(=O)c2sccc2n2c(CCCC(=O)NCc3ccc4c(c3)OCO4)nnc12,-1.87%
4,Cn1c(=O)c2c(nc(Cl)n2Cc2cccc(C(F)(F)F)c2)n(C)c1=O,7.93%
5,C(=C\c1ccc2c(c1)OCO2)/c1ccncc1,2.4% and 4.04%
6,CC(C)(CO)NCc1ccccc1OCc1ccc(Cl)cc1,-2.82%
7,Cc1ccc(S(=O)(=O)NCCOc2ccccc2Cl)cc1[N+](=O)[O-],-6.82%
8,N#CCNC(=O)C(CC(=O)N1CCOCC1)CS(=O)(=O)Cc1ccccc1 (stereo not drawn),-1.83%
9,COc1ccc(-n2ncc(C(=O)N3CCCCC3)c2C2CCNCC2)cc1,-4.61%
10,Cn1cc(CCCC(=O)NCCC2=CCCCC2)c2ccccc21,-1.34%
11,Cc1cc(C)c(C)c(OCCCCCN2CCCC2)c1,-3.94%
12,CC(C)Oc1ccc(C(=O)NC2CCCCC2)cc1,5.03%
13,Cc1nc2c(-c3ccccc3)c(C)nn2c(C)c1CC(=O)NC1CCCC1,0.953%
14,O=S(=O)(c1ccccc1)n1ccc2c(Cl)ccnc21,-2.8%
15,CN1CCN(C(=O)c2ccc(S(=O)(=O)N3CCOCC3)cc2)CC1,-1.85%
16,Cc1cc(OC(C)C(=O)Nc2ccc(S(=O)(=O)Nc3nccs3)cc2)cc(C)c1Cl (stereo not drawn),-1.96%
17,CC(=O)c1c(O)cc(C)o/c1=N\c1cccc(C)c1,-6.35%
18,CC(C)(CO)NC(=O)C12CC3CC(CC(C3)C1)C2,-2.48%
19,Cc1ccccc1NS(=O)(=O)c1ccc(Sc2ccc(S(=O)(=O)Nc3ccccc3C)cc2)cc1,4.08%
20,CN(CC(=O)N1CCN(Cc2ccccc2)CC1)S(=O)(=O)c1ccc2[nH]c3c(c2c1)CCCC3,-0.878%
21,CC1CC(=O)C2=C(C1)OC(N)=C(C#N)C2c1c[nH]c2ccccc12 (stereo not drawn),-5.61%
22,Cc1ccc(-n2ncc3c(N(C)Cc4ccccc4)ncnc32)c(C)c1,0.593%
23,Cc1ccc(-n2ncc3c2ncn2nc(COc4ccccc4C)nc32)cc1C,2.19%
24,CC(NS(=O)(=O)c1ccc(CCC(=O)NC2CCCCC2)cc1)c1ccccc1 (stereo not drawn),0.161%
25,CCOc1cc(C2C(C(=O)OC)=CN(C3CC3)C=C2C(=O)OC)ccc1O,1.96%

row,Compound,% Inhibition @ 10 uM
1,CC(C)OCCCNC(=O)c1ccc2c(c1)sc1nc(-c3ccccc3)cn12,10%
2,Cc1ccccc1N1CCN(C(=O)c2ccccc2N)CC1,1.94%
3,COc1cccc(C2=NS(=O)(=O)N(C)C(C(=O)NC3CCCC3)=C2)c1,2.32%
4,Cc1cccc(C)c1N1C(=O)C2C3C=CC(C3)C2(C)C1=O (stereo not drawn),1.34%
5,CS(=O)(=O)N1CCC(C(=O)N2CCN(Cc3ccc4c(c3)OCO4)CC2)CC1,5.66%
6,CC(C)(CO)NC12CC3CC(CC(C3)C1)C2,-5.01%
7,CCOCCCNc1c(-c2ccccc2)nc2ccc(Br)cn12,-5.77%
8,COc1ccc(N2CCN(Cc3ccc(-c4ccccc4)cc3)CC2)cc1,-6.36%
9,CCCO/C(O)=C1\C(C)=NC2=C(C(=O)CC(C)(C)C2)C1c1cccc(Cl)c1 (stereo not drawn),-5.44%
10,Cc1ccc(NC(=O)COc2ccccc2)c(C)c1,3%
11,Cc1sc(NC(=O)c2cc(Cl)ccc2Cl)c(C#N)c1C,9.68%
12,O=C(O)c1cc2ccc3cccnc3c2[nH]1,1.9%
13,O=C(O)CCNC(=O)/C(=C\c1ccccc1)NC(=O)c1ccccc1,-5.59%
14,Cc1ccc(OCC(=O)Nc2ccccc2O)cc1,-4.63%
15,Cc1cc(C)c2nc3nc(C)cc(C)c3c(N)c2c1,6.74%
16,CCCCCCSc1nc2c(c(=O)[nH]c(=O)n2C)n1C(C)C,-4.48%
17,COCCCN1C(=O)S/C(=C/c2cc(C)n(-c3ccc4c(c3)OCO4)c2C)C1=O,4.03%
18,Cc1cccn2c(=O)c3cc(C(=O)NCCC(C)C)n(C)c3nc12,0.583%
19,CCOC(=O)c1c(NC(=O)COc2ccccc2C)sc2c1CCC2,21.4%
20,CC(Oc1ccccc1)C(=O)Nc1ccc(NC(=O)C(C)Oc2ccccc2)cc1 (stereo not drawn),4.31%
21,COc1ccc(S(=O)(=O)Nc2ccccc2C(=O)N2CCCC2)c(Cl)c1Cl,-0.519%
22,COc1nc(NC23CC4CC(CC(C4)C2)C3)nc(OC)n1,2.58%
23,Cc1ccc(OCC(=O)Nc2ccc(S(=O)(=O)N3CCCCCC3)cc2)c(Br)c1,-4.02%
24,O=C(CSc1ccccn1)Nc1ncc(Br)cc1Br,4.42%
